# Experimental data taken from PubChem BioAssay AID624296 (National Center for Advancing Translational Sciences (NCATS), 2012).
# Out of some 350,000 compounds screened, about 9,900 (2.8%) were called active. Inconclusive means that the source gave no clear call. Such entries were picked first, then a sample of the others. The call rests on the fitted dose curve; in most records, active means well fitted activation curve with a large enough effect; inconclusive means small, poorly fitted or top-dose-only effect; inactive means no such curve, though single readings can be large or run the other way. No potency is given beside an inconclusive call; the fits are too rough.
# Assay: A quantitative high throughput screen for small molecules that induce DNA re-replication in MCF 10a normal breast cells. Further: nearly all actives have a fitted effect of over 50% in size. On activity, positive = re-replication: % of control where 0% means no effect.
# Settings: MCF 10A DNA re-replication, Hoechst nuclear intensity, 48 h; activity, positive = re-replication: at 46.1 µM (top of the series)
# Potency means the concentration at half of the fitted maximal effect; tags describe the fitted curve by direction and shape.
SMILES,"activity, positive = re-replication",Potency
O=C(COc1ccc(F)cc1Br)Nc1ccccc1N1CCOCC1,inactive: -0.0001%,
CSc1ccccc1OCc1cc(C(=O)NC(C)Cc2cccc(C)n2)no1 (configuration not stated),inactive: 29.7%,
Cc1ccccc1-c1nc(CN2CCC(C(=O)NC3CCN(Cc4ccccc4)CC3)CC2)c(C)o1,,"inconclusive [activator, full curve, poor fit]"
C[C@@H]1CC=C[C@H]2[C@H]1C(=O)N(Cc1ccccc1)[C@H]2c1ccc2ccccc2c1Br,,"inconclusive [activator, partial curve, poor fit]"
CCOC(=O)c1c(NC(=O)C2CCCN(S(=O)(=O)c3ccc(C)cc3)C2)sc2c1CCCC2 (configuration not stated),,"inconclusive [activator, full curve]"
Cc1nn(-c2ccccc2)nc1CNC(=O)CC(C)(C)C,inactive: 0.135%,
Cc1ccccc1C(=O)Oc1cccc(Nc2ncnc3ccccc23)c1,inactive: 27.7%,
CCN(CC)S(=O)(=O)c1ccc(Cl)c(NC(=S)NC(=O)C2CCCC2)c1,,"inconclusive [activator, single point]"
O=C(Nc1nnc(-c2ccncc2)o1)c1ccccc1,,"inconclusive [activator, single point]"
CN(CCc1ccccn1)C(=O)CCC1CCCN(C(=O)c2n[nH]c3c2CCCC3)C1 (configuration not stated),inactive: -26.1%,
CCn1cc(C(=O)NCC(C)C)c(=O)c2cc(F)c(N3CCN(C(=O)c4ccco4)CC3)cc21,,"inconclusive [activator, full curve, poor fit]"
COC(=O)[C@@]1(Cc2ccc(F)cc2)[C@H]2c3cc(C(=O)N(C)C)n(Cc4nc5ccccc5[nH]4)c3C[C@H]2CN1C(=O)c1ccccc1,,"inconclusive [activator, single point]"
C[n+]1ccccc1C1CCCC/C1=N\NC(N)=S (configuration not stated),,"inconclusive [activator, partial curve, poor fit]"
CCOc1ccc(N2C(=O)S/C(=C\c3cc(OC)c(OC)c(OC)c3)C2=O)cc1,,"inconclusive [activator, partial curve]"
CSc1ccc(CN(C)C(C)C(=O)NCC2CCCCC2)cc1 (configuration not stated),,"inconclusive [activator, single point]"
CN1CCN(c2ccc(CNS(=O)(=O)c3cccc(F)c3)cc2)CC1,,"inconclusive [activator, full curve, poor fit]"
CCN(CC)C(=O)Oc1nnc(SC(C)C)n1-c1ccc(Cl)cc1,,"inconclusive [activator, full curve, poor fit]"
CC(CCc1ccccc1)NC(=O)c1ccc(NC(=O)c2ccccc2)cc1 (configuration not stated),,"inconclusive [activator, single point]"
CCN1C(=NCCCOC(C)C)N[C@@H](CCc2ccccc2)[C@H](C(=O)NCCCOC(C)C)[C@H]1C,,"inconclusive [activator, partial curve, poor fit]"
O=C(/C=C/c1ccc2c(c1)OCO2)c1ccc(O)cc1O,,"inconclusive [activator, single point]"
COc1cccc(N=C2NC(=O)/C(=C/c3cc([N+](=O)[O-])ccc3O)S2)c1,,"inconclusive [activator, single point]"
Cc1cccc2c1c1ccc3c(c1n2C)C(=O)C=CC3=O,,"inconclusive [activator, single point]"
CCc1ccc(NC(=O)c2noc(C(C)C)c2[N+](=O)[O-])cc1,,"inconclusive [activator, single point]"

SMILES,"activity, positive = re-replication",Potency
CCN(CC)S(=O)(=O)c1ccc(C)c(NC(=S)N2CCN(C/C=C/c3ccccc3)CC2)c1,inactive: 25.6%,
C=CC[C@@H](CC(=O)N[C@H](CO)Cc1ccccc1)C(=O)N[C@H](COC(=O)[C@@H](CC=C)CC(=O)OC(C)(C)C)Cc1ccccc1,inactive: 4.31%,
N=c1c2c(n(Cc3ccccc3)c3c1CCC3)CCC2,,"inconclusive [activator, full curve, poor fit]"
COc1cc2nc(C3CC3)n(NC(=O)c3ccc(Cl)cc3)c(=O)c2cc1OC,,"inconclusive [activator, single point]"
COc1ccc(Br)cc1CNC(=O)CCCc1cn(C)c2ccccc12,,"inconclusive [activator, partial curve, poor fit]"
Cc1ccc(C2C=C(c3ccccc3)Nc3ncnn32)cc1 (configuration not stated),,"inconclusive [activator, full curve, poor fit]"
COc1ccc(C2Nc3ccccc3C(=O)N2Cc2ccco2)cc1COc1ccc(F)cc1 (configuration not stated),,"inconclusive [activator, single point]"
Cn1c2ccccc2c(=O)c2ccc(-c3ccc4c(c3)OCO4)cc21,,active: 14.6 µM
COc1ccc(NC(=O)c2cc(-c3ccncc3)nc3ccc(Br)cc23)cc1OC,,"inconclusive [activator, single point]"
Cc1cc(C)c2cc(C(=O)N3CCC(N4CCCCC4)CC3)[nH]c2c1,,"inconclusive [activator, partial curve, poor fit]"
CCCC(=O)Nc1ccc(NC(=O)c2ccccc2Cl)nc1,,"inconclusive [activator, partial curve, poor fit]"
COC(=O)CCN1CCC2CC1c1cc(-c3cccc(C)c3)ccc12 (configuration not stated),inactive: 1.45%,
Cc1cc(C)c(CSc2ncc(-c3ccc([N+](=O)[O-])cc3)[nH]2)c(C)c1,,active: 18.4 µM
CCc1cc(C(=O)c2ccc(OC)cc2)c(NC(=O)CN2CCCC2)s1,inactive: 8.08%,
CN(C)c1ccc(C(=S)Nc2ccccc2)cc1,inactive: 2.69%,
Cc1ccc2cc3c(NC(=O)c4ccco4)nn(C)c3nc2c1,,active: 18.4 µM
Cc1ccc(C(C)C)c(OCC(=O)NN=C2CCCC(=O)C2)c1,,"inconclusive [activator, single point]"
CCOc1nc2c(c(-c3cccs3)c1C#N)Cc1ccccc1-2,,"inconclusive [activator, partial curve, poor fit]"
CC(C)Sc1nc(N2CCCC2)c2c(c1C#N)CC(C)(C)OC2,,"inconclusive [activator, single point]"
CC(C)C(=O)N1CCN(c2ccccc2NC(=O)c2cccc3ccccc23)CC1,,"inconclusive [activator, partial curve, poor fit]"
COc1ccc(CC(=O)Nc2ccc(-c3nnc(-c4ccc(C)cc4)o3)cc2)cc1,,"inconclusive [activator, single point]"
C/C=C(\C)CN1CCC(n2nccc2NC(=O)CCCc2ccccc2)CC1,inactive: 2.81%,
Cc1nnc(C)n1/N=C/c1ccccc1,inactive: -7.67%,

SMILES,"activity, positive = re-replication",Potency
Cc1ccc(SCc2c(C(=O)N/N=C/c3cccnc3)nnn2-c2nonc2N)cc1,,"inconclusive [activator, single point]"
CSc1cccc(NC(=O)C2CCCN2S(=O)(=O)c2ccc(Br)s2)c1 (configuration not stated),inactive: 1.2%,
COc1c(CC=C(C)C)c(O)cc2oc(=O)c3c4ccc(O)cc4oc3c12,,active: 18.4 µM
Clc1ccc(-c2nnnn2-c2ccc(Cl)c(Cl)c2)cc1Cl,,"inconclusive [activator, partial curve, poor fit]"
O=C(N/N=C/c1ccc(N2CCOCC2)o1)c1ccccc1[N+](=O)[O-],,"inconclusive [activator, partial curve, poor fit]"
CCCn1nc(NC(=O)C2CCCO2)c2cc3cc(C)ccc3nc21 (configuration not stated),,"inconclusive [activator, partial curve, poor fit]"
COc1cc(N/N=C(\C)c2ccc(N)cc2)nc(-c2ccccc2)n1,,active: 18.4 µM
Fc1cccc(Nc2nc(N3CCOCC3)nc(N3CCOCC3)n2)c1,,active: 23.1 µM
CCN(CC)c1ccc(/C=c2\sc3nc4ccccc4n3c2=O)c(O)c1,,active: 2.59 µM
COc1ccc(N2C(=O)/C(=C/c3ccc([N+](=O)[O-])cc3)N=C2C)c(OC)c1,inactive: 24.7%,
O=C1CC(O)(C(F)(F)F)Oc2c1ccc1ccccc21 (configuration not stated),,active: 20.6 µM
C=CCc1c(C)[nH]c2ccc(C)cc2c1=O,,"inconclusive [activator, single point]"
O=C(N/N=C/c1cccnc1)c1cc(-c2cccs2)nc2ccccc12,,"inconclusive [activator, single point]"
CN(C)CCN(Cc1cccs1)c1ccccn1,,inactive
COc1cccc2c(=O)c(SC(F)(F)C(F)C(F)(F)F)c(C)[nH]c12 (configuration not stated),,"inconclusive [activator, single point]"
CCCCCCc1cc2cc(C(=O)Nc3cccc(OC)c3)c(=O)oc2cc1O,,"inconclusive [activator, partial curve, poor fit]"
Cc1ccc(S(=O)(=O)N2CCOC2C(Cl)(Cl)Cl)cc1 (configuration not stated),inactive: 0.957%,
O=C(CCCN1C(=O)/C(=C\c2ccco2)SC1=S)Nc1cccc2ccccc12,,"inconclusive [activator, single point]"
O=C(c1cccc([N+](=O)[O-])c1)N1CCN(c2ncccn2)CC1,inactive: 5.06%,
Cc1cccc(NC(=O)CNC(=O)CCNC(=O)c2ccc(C(C)(C)C)cc2)c1C,,"inconclusive [activator, partial curve, poor fit]"
O=c1c2sccc2nc(SCc2ccc([N+](=O)[O-])cc2)n1Cc1ccccn1,,"inconclusive [activator, single point]"
